US20240294594A1 (CYTUNE PHARMA, published 2024)
Blank lines part the entries; values can stand above or below the binder they belong to.

What was measured:
[1] = target: T1, IL-2/IL-15Rβγ (on cells) (UniProt P14784 27-551; P31785 23-369, limits assumed); experiment: cell-based or functional assay
T1 sequence (looked up) 1: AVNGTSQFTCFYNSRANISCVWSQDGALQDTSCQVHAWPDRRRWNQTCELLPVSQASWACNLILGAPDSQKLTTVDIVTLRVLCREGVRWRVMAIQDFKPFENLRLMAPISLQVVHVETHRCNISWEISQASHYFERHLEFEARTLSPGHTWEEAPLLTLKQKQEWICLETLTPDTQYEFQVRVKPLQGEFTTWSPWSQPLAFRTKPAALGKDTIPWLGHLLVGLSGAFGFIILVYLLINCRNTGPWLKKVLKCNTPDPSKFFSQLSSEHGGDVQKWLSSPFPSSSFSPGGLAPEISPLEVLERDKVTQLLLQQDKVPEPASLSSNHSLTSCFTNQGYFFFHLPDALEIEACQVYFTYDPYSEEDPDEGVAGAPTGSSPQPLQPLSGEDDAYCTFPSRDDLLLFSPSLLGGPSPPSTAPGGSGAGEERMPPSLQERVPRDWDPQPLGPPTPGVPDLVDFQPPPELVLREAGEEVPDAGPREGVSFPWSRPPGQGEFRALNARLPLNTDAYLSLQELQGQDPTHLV
T1 sequence (looked up) 2: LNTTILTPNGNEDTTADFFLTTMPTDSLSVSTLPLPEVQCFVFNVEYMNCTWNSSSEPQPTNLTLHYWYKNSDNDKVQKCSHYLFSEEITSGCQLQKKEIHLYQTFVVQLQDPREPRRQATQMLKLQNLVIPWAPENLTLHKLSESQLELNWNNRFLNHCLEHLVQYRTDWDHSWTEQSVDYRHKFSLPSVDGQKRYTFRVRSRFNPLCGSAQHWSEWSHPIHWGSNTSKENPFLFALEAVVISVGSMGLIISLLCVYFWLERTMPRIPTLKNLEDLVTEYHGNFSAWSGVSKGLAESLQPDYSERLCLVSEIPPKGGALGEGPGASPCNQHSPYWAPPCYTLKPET

[2] = target: PD-1 (on PD-1 Effector Cells of the Promega PD-1/PD-L1 Blockade Bioassay) (UniProt Q15116 25-288, limits assumed); experiment: cell-based or functional assay
Sequence of UniProt Q15116 (Q15116 25-288 limits assumed): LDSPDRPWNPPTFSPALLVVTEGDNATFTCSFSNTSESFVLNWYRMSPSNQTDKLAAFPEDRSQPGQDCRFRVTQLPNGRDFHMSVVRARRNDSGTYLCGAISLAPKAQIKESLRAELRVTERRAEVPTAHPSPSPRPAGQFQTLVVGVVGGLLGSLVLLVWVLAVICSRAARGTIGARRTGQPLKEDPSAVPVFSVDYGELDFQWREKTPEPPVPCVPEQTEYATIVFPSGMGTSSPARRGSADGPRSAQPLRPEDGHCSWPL

B1: PEM LE-RLI-NA x1 (other)
heavy 1: QVQLVQSGVEVKKPGASVKVSCKASGYTFTNYYMYWVRQAPGQGLEWMGGINPSNGGTNFNEKFKNRVTLTTDSSTTTAYMELKSLQFDDTAVYYCARRDYRFDMGFDYWGQGTTVTVSSASTKGPSVFPLAPCSRSTSESTAALGCLVKDYFPEPVTVSWNSGALTSGVHTFPAVLQSSGLYSLSSVVTVPSSSLGTKTYTCNVDHKPSNTKVDKRV[not shown - human IgG4 Fc with S228P L235E T366W (EU numbers)]ITCPPPMSVEHADIWVKSYSLYSRERYICNSGFKRKAGTSSLTECVLNKATNVAHWTTPSLKCIRDPALVHQRPAPPSGGSGGGGSGGGSGGGGSGGNWVNVISDLKKIEDLIQSMHIDATLYTESDVHPSCKVTAMKCFLLELQVISLESGDASIHDTVEALIILANNSLSSNAQVTESGCKECEELEEKNIKEFLQSFVHIVQMFINTS
heavy 2: QVQLVQSGVEVKKPGASVKVSCKASGYTFTNYYMYWVRQAPGQGLEWMGGINPSNGGTNFNEKFKNRVTLTTDSSTTTAYMELKSLQFDDTAVYYCARRDYRFDMGFDYWGQGTTVTVSSASTKGPSVFPLAPCSRSTSESTAALGCLVKDYFPEPVTVSWNSGALTSGVHTFPAVLQSSGLYSLSSVVTVPSSSLGTKTYTCNVDHKPSNTKVDKRVESKYGPPCPPCPAPEFEGGPSVFLFPPKPKDTLMISRTPEVTCVVVDVSQEDPEVQFNWYVDGVEVHNAKTKPREEQFNSTYRVVSVLTVLHQDWLNGKEYKCKVSNKGLPSSIEKTISKAKGQPREPQVYTLPPSQEEMTKNQVSLSCAVKGFYPSDIAVEWESNGQPENNYKTTPPVLDSDGSFFLVSRLTVDKSRWQEGNVFSCSVMHEALHNHYTQKSLSLSLG
light: EIVLTQSPATLSLSPGERATLSCRASKGVSTSGYSYLHWYQQKPGQAPRLLIYLASYLESGVPARFSGSGSGTDFTLTISSLEPEDFAVYYCQHSRDLPLTFGGGTKVEIKRTVAAPSVFIFPPSDEQLKSGTASVVCLLNNFYPREAKVQWKVDNALQSGNSQESVTEQDSKDSTYSLSSTLTLSKADYEKHKVYACEVTHQGLSSPVTKSFNRGEC
EC50 kit225 cells pM [1]: 14000 pM
Relative potency/kit225 cells [1]: 0.36%

B4: PEM LE-RLI-ND x1 (other)
heavy 1: QVQLVQSGVEVKKPGASVKVSCKASGYTFTNYYMYWVRQAPGQGLEWMGGINPSNGGTNFNEKFKNRVTLTTDSSTTTAYMELKSLQFDDTAVYYCARRDYRFDMGFDYWGQGTTVTVSSASTKGPSVFPLAPCSRSTSESTAALGCLVKDYFPEPVTVSWNSGALTSGVHTFPAVLQSSGLYSLSSVVTVPSSSLGTKTYTCNVDHKPSNTKVDKRV[not shown - human IgG4 Fc with S228P L235E T366W (EU numbers)]ITCPPPMSVEHADIWVKSYSLYSRERYICNSGFKRKAGTSSLTECVLNKATNVAHWTTPSLKCIRDPALVHQRPAPPSGGSGGGGSGGGSGGGGSGGNWVNVISDLKKIEDLIQSMHIDATLYTESDVHPSCKVTAMKCFLLELQVISLESGDASIHDTVEDLIILANNSLSSNAQVTESGCKECEELEEKNIKEFLQSFVHIVQMFINTS
heavy 2: B1 heavy 2
light: B1 light
EC50 kit225 cells pM [1]: 9240 pM
Relative potency/kit225 cells [1]: 0.55%

B5: PEM LE-RLI-NQD x2 (other)
heavy: QVQLVQSGVEVKKPGASVKVSCKASGYTFTNYYMYWVRQAPGQGLEWMGGINPSNGGTNFNEKFKNRVTLTTDSSTTTAYMELKSLQFDDTAVYYCARRDYRFDMGFDYWGQGTTVTVSSASTKGPSVFPLAPCSRSTSESTAALGCLVKDYFPEPVTVSWNSGALTSGVHTFPAVLQSSGLYSLSSVVTVPSSSLGTKTYTCNVDHKPSNTKVDKRV[not shown - human IgG4 Fc with changes]ITCPPPMSVEHADIWVKSYSLYSRERYICNSGFKRKAGTSSLTECVLNKATNVAHWTTPSLKCIRDPALVHQRPAPPSGGSGGGGSGGGSGGGGSGGNWVNVISDLKKIEDLIQSMHIDATLYTESNVHPSCKVTAMKCFLLELQVISLESGDASIHDTVQDLIILANNSLSSNAQVTESGCKECEELEEKNIKEFLQSFVHIVQMFINTS
light: B1 light
EC50 kit225 cells pM [1]: 117000 pM
Relative potency/kit225 cells [1]: 0.044%

Now from value to binder:

EC50 kit225 cells pM [1]: 5270 pM
Relative potency/kit225 cells [1]: 0.97%
B2: PEM LE-RLI-ND x2 (other)
heavy: QVQLVQSGVEVKKPGASVKVSCKASGYTFTNYYMYWVRQAPGQGLEWMGGINPSNGGTNFNEKFKNRVTLTTDSSTTTAYMELKSLQFDDTAVYYCARRDYRFDMGFDYWGQGTTVTVSSASTKGPSVFPLAPCSRSTSESTAALGCLVKDYFPEPVTVSWNSGALTSGVHTFPAVLQSSGLYSLSSVVTVPSSSLGTKTYTCNVDHKPSNTKVDKRV[not shown - human IgG4 Fc with changes]ITCPPPMSVEHADIWVKSYSLYSRERYICNSGFKRKAGTSSLTECVLNKATNVAHWTTPSLKCIRDPALVHQRPAPPSGGSGGGGSGGGSGGGGSGGNWVNVISDLKKIEDLIQSMHIDATLYTESDVHPSCKVTAMKCFLLELQVISLESGDASIHDTVEDLIILANNSLSSNAQVTESGCKECEELEEKNIKEFLQSFVHIVQMFINTS
light: B1 light

EC50 kit225 cells pM [1]: 10700 pM
Relative potency/kit225 cells [1]: 0.47%
B3: PEM LE-RLI-NA x2 (other)
heavy: QVQLVQSGVEVKKPGASVKVSCKASGYTFTNYYMYWVRQAPGQGLEWMGGINPSNGGTNFNEKFKNRVTLTTDSSTTTAYMELKSLQFDDTAVYYCARRDYRFDMGFDYWGQGTTVTVSSASTKGPSVFPLAPCSRSTSESTAALGCLVKDYFPEPVTVSWNSGALTSGVHTFPAVLQSSGLYSLSSVVTVPSSSLGTKTYTCNVDHKPSNTKVDKRV[not shown - human IgG4 Fc with changes]ITCPPPMSVEHADIWVKSYSLYSRERYICNSGFKRKAGTSSLTECVLNKATNVAHWTTPSLKCIRDPALVHQRPAPPSGGSGGGGSGGGSGGGGSGGNWVNVISDLKKIEDLIQSMHIDATLYTESDVHPSCKVTAMKCFLLELQVISLESGDASIHDTVEALIILANNSLSSNAQVTESGCKECEELEEKNIKEFLQSFVHIVQMFINTS
light: B1 light

EC50 [pM], Promega blocking assay [2]: 4570 pM
Relative potency vs Keytruda, Promega blocking assay [2]: 38.6%
B6: PD1-IL2v (other)
heavy 1: EVQLLESGGGLVQPGGSLRLSCAASGFSFSSYTMSWVRQAPGKGLEWVATISGGGRDIYYPDSVKGRFTISRDNSKNTLYLQMNSLRAEDTAVYYCVLLTGRVYFALDSWGQGTLVTVSSASTKGPSVFPLAPSSKSTSGGTAALGCLVKDYFPEPVTVSWNSGALTSGVHTFPAVLQSSGLYSLSSVVTVPSSSLGTQTYICNVNHKPSNTKVDKKV[not shown - human IgG1 Fc with changes]GGGGSGGGGSGGGGSAPASSSTKKTQLQLEHLLLDLQMILNGINNYKNPKLTRMLTAKFAMPKKATELKHLQCLEEELKPLEEVLNGAQSKNFHLRPRDLISNINVIVLELKGSETTFMCEYADETATIVEFLNRWITFAQSIISTLT
heavy 2: EVQLLESGGGLVQPGGSLRLSCAASGFSFSSYTMSWVRQAPGKGLEWVATISGGGRDIYYPDSVKGRFTISRDNSKNTLYLQMNSLRAEDTAVYYCVLLTGRVYFALDSWGQGTLVTVSSASTKGPSVFPLAPSSKSTSGGTAALGCLVKDYFPEPVTVSWNSGALTSGVHTFPAVLQSSGLYSLSSVVTVPSSSLGTQTYICNVNHKPSNTKVDKKVEPKSCDKTHTCPPCPAPEAAGGPSVFLFPPKPKDTLMISRTPEVTCVVVDVSHEDPEVKFNWYVDGVEVHNAKTKPREEQYNSTYRVVSVLTVLHQDWLNGKEYKCKVSNKALGAPIEKTISKAKGQPREPQVCTLPPSRDELTKNQVSLSCAVKGFYPSDIAVEWESNGQPENNYKTTPPVLDSDGSFFLVSKLTVDKSRWQQGNVFSCSVMHEALHNHYTQKSLSLSP
light: DIVMTQSPDSLAVSLGERATINCKASESVDTSDNSFIHWYQQKPGQSPKLLIYRSSTLESGVPDRFSGSGSGTDFTLTISSLQAEDVAVYYCQQNYDVPWTFGQGTKVEIKRTVAAPSVFIFPPSDEQLKSGTASVVCLLNNFYPREAKVQWKVDNALQSGNSQESVTEQDSKDSTYSLSSTLTLSKADYEKHKVYACEVTHQGLSSPVTKSFNRGEC
